Our source for the binding values is article PMC6718625, “CryoEM structures of Arabidopsis DDR complexes involved in RNA-directed DNA methylation” (Nature Communications, 2019).

The target in assay [1] is DMS3, yeast two-hybrid fusion (Arabidopsis) (UniProt Q94A79). The experiment in a line: two-hybrid; yeast two-hybrid, ProQuest system, MaV203 strain, pDEST22/pDEST32 fusions, growth on medium with 3-AT.
For assay [2], the target named is T1, RDM1, yeast two-hybrid fusion (Arabidopsis) (UniProt Q9LUJ3).
T1 sequence: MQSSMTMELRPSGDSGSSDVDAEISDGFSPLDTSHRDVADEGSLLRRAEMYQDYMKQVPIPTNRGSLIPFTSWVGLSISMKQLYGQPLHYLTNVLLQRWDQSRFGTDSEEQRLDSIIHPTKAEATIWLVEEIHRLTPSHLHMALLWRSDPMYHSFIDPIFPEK
The description is as above.

The target in assay [3] is T2, 6xHis-RDM1 (Arabidopsis, UniProt Q9LUJ3 3-163).
T2 construct: RDM1, Arabidopsis; also called His tag-RDM1; source: E. coli Rosetta2 (DE3), pCDFDuet-1, co-expressed with DMS3; purified within the DR or DDR′ complex, or in lysate (pulldown); not shown: 6xHis, N-terminal, kept
T2 sequence: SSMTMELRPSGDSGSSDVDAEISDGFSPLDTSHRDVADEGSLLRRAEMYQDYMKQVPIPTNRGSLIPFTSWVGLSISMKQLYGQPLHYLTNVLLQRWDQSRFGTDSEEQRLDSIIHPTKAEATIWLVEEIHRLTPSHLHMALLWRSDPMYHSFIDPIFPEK
The experiment in a line: cryo-EM structure; single-particle cryoEM of the purified DDR′ complex (DRD1 peptide 7-DMS3-RDM1), 3.5 Å; both purified.

The target of assay [4] is T2, 6xHis-RDM1. The experiment in a line: SEC; His tag affinity-purified DR complex co-expressed in E. coli, HiLoad 16/600 Superdex 200 pg, 20 mM HEPES-KOH pH 7.5, 150 mM NaCl; both purified.
Assay [5] has as its target T2, 6xHis-RDM1. The experiment in a line: cross-linking; purified DDR′ complex (50 μg) cross-linked with 0.5 mM DSS (30 min) or 15 mM ADH and DMTMM (10 min) at room temperature; cross-linked peptides identified by LC-MS/MS and xQuest; both purified.
Assay [6] concerns the target T2, 6xHis-RDM1. Description: pull-down; His-RDM1 co-expressed with DMS3 WT or G339E in E. coli; lysate on magnetic Ni-NTA agarose beads, 4 °C; wash 20 mM HEPES pH 7.5, 200 mM NaCl, 50 mM imidazole, 0.05% Tween20; SDS-PAGE and protein stain.
Assay [7] addresses T3, DRD1 peptide 7 with C-terminal Strep II tag (Arabidopsis) (UniProt Q9SIW2).
T3 sequence: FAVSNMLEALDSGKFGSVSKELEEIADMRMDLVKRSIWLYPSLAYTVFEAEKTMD
Description: SEC; Strep II tag affinity-purified DDR′ complex (bait DRD1 peptide 7-Strep II) co-expressed in E. coli, HiLoad 16/600 Superdex 200 pg, 20 mM HEPES-KOH pH 7.5, 150 mM NaCl; both purified.

Assay [8] concerns the target DMS3-RDM1 complex in the yeast three-hybrid (Arabidopsis) (UniProt Q94A79+Q9LUJ3). Description: two-hybrid; yeast three-hybrid: Gal4 BD and AD fusions plus RDM1 from pYES under the constitutive ADH1 promoter; MaV203; growth on SD with increasing 3-AT.
In assay [9] the target is DRD1, yeast two- and three-hybrid fusion (Arabidopsis) (UniProt Q9SIW2). The experiment in a line: two-hybrid; yeast two-hybrid, ProQuest system, MaV203 strain, pDEST22/pDEST32 fusions, growth on medium with 3-AT.
In assay [10] the target is T4, DMS3, yeast two-hybrid fusion (Arabidopsis), Q94A79.
T4 chain: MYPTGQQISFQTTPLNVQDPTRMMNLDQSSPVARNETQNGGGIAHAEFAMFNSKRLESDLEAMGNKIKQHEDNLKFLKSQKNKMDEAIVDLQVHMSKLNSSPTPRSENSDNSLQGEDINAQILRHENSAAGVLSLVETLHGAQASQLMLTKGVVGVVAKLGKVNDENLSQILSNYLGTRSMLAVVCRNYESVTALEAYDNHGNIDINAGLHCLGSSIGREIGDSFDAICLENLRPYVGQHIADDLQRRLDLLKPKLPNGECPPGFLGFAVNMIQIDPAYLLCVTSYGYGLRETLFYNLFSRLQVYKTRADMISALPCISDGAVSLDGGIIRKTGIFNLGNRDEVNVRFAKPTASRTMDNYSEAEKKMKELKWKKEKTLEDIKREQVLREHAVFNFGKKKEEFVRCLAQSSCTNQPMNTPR
The description is as above. To be noted: remark: other sources report otherwise.

In assay [11] the target is T5, RDM1, yeast two-hybrid fusion (Arabidopsis), Q9LUJ3.
T5 chain: T1 sequence
Described as above. To be noted: remark: other sources report otherwise.

These are yes or no findings as the source states them, for the method shown. For some of these results: In cells and extracts the contact can be indirect. Some binding calls cover weakened binding; strength is not graded here. For some of these results: Where a sequence is shown, tags or fusion partners need not be part of it.

Turning to “DMS3, yeast two-hybrid fusion (from UniProt Q94A79 1-420)”, the binding entry in [1] and in assay [2] was “binds” throughout.

B1: DMS3 (recombinant, co-expressed with His-RDM1) (natural protein, Arabidopsis)
chain: YPTGQQISFQTTPLNVQDPTRMMNLDQSSPVARNETQNGGGIAHAEFAMFNSKRLESDLEAMGNKIKQHEDNLKFLKSQKNKMDEAIVDLQVHMSKLNSSPTPRSENSDNSLQGEDINAQILRHENSAAGVLSLVETLHGAQASQLMLTKGVVGVVAKLGKVNDENLSQILSNYLGTRSMLAVVCRNYESVTALEAYDNHGNIDINAGLHCLGSSIGREIGDSFDAICLENLRPYVGQHIADDLQRRLDLLKPKLPNGECPPGFLGFAVNMIQIDPAYLLCVTSYGYGLRETLFYNLFSRLQVYKTRADMISALPCISDGAVSLDGGIIRKTGIFNLGNRDEVNVRFAKPTASRTMDNYSEAEKKMKELKWKKEKTLEDIKREQVLREHAVFNFGKKKEEFVRCLAQSSCTNQPMNTPR
notes: DMS3, Arabidopsis; residues 1-42 and 410-420 are said not to be visible in the maps; DMS3h, DMS3hc1 and DMS3hc2 are conformational states of the same chain in the structures; also called DMS3 WT; DMS3h; source: E. coli Rosetta2 (DE3), pCDFDuet-1, co-expressed with His-RDM1; purified within the DR or DDR′ complex, or in lysate (pulldown)
On to B1, for which the binding entry with 6xHis-RDM1 [3], with 6xHis-RDM1 [4], in the assay with 6xHis-RDM1 [5] and in the assay with 6xHis-RDM1 [6] was “binds” each time.

B2: DR complex (DMS3-RDM1) (complex, Arabidopsis)
chain 1: T2 sequence
chain 2: B1 chain
notes: RDM1, Arabidopsis; DMS3, Arabidopsis; residues 1-42 and 410-420 are said not to be visible in the maps; Stoichiometry 4 DMS3 : 2 RDM1 by cryo-EM; also called DMS3-RDM1 complex; source: E. coli Rosetta2 (DE3), co-expressed from pCDFDuet-1, purified (His Trap HP or, with DRD1 peptide 7, Strep Trap HP; Superdex 200); not shown: 6xHis, N-terminal, kept; copies: 2 + 4
For the molecule B2, the binding entry in [7] is on record as “binds”.

B3: DRD1 peptide 7, yeast three-hybrid fusion (domain or fragment, UniProt Q9SIW2 45-99)
chain: T3 sequence
Take B3: in assay [8], the binding result was “binds”.

B4: RDM1, yeast two-hybrid fusion (protein, UniProt Q9LUJ3 1-163)
chain: T1 sequence
Regarding B4, the binding result in assay [2] is on record as “binds”.

B5: DRD1, yeast two- and three-hybrid fusion (protein, UniProt Q9SIW2 1-888)
chain: MGFVYIVMTGYYKNVHKRKQNQVDDGPEAKRVKSSAKVIDYSNPFAVSNMLEALDSGKFGSVSKELEEIADMRMDLVKRSIWLYPSLAYTVFEAEKTMDNQQVVEGVINLDDDDDDDTDVEKKALCVVPSSSEIVLLDSDDEDNERQRPMYQFQSTLVQHQKNQGDVTPLIPQCSFEEVDLGRGKEMPSAIKAIVEGQTSRGKVLPIENGVVNEKGVYVGVEEDDSDNESEAADEDLGNIWNEMALSIECSKDVARETSHKEKADVVEDCEHSFILKDDMGYVCRVCGVIEKSILEIIDVQFTKAKRNTRTYASETRTKRFGESDNELKFSEEGLMIGGLAAHPTHAAEMKPHQIEGFQFLCSNLVADDPGGCIMAHAPGSGKTFMIISFMQSFLAKYPQAKPLVVLPKGILPTWKKEFVRWQVEDIPLLDFYSAKAENRAQQLSILKQWMEKKSILFLGYQQFSTIVCDDTTDSLSCQEILLKVPSILILDEGHTPRNEDTNLLQSLAQVQTPRKVVLSGTLYQNHVKEVFNILNLVRPKFLKLDTSKSAVKRILAYTPCDVRGRLTGSNSDMASMFNETVEHTLQKSEDFTVKIKVIQDLREMTKKVLHYYKGDFLDELPGLADFTVVLNLSPKQLNEVKKLRREKRKFKVSAVGSAIYLHPKLKVFSDKSDDVSDTTMDEMVEKLDLNEGVKAKFFLNLINLCDSAGEKLLVFSQYLIPLKFLERLAALAKGWKLGKEVFVLTGNTSSEQREWSMETFNSSPDAKIFFGSIKACGEGISLVGASRILILDVPLNPSVTRQAIGRAFRPGQKKMVHAYRLIAGSSPEEEDHNTCFKKEVISKMWFEWNEYCGYQNFEVETIDVDEAGDTFLESPALREDIRVLYKR
With B5, the binding result in assay [9] is “no binding”; in assay [8], “binds”.

B6: DRD1, yeast two- and three-hybrid fusion, Q9SIW2 1-888 (protein)
chain: B5 chain
Turning to B6, the binding result in assay [10] and in assay [11] was “no binding” in each case.
